From PMC4336329 (PLoS ONE, 2015)
About 2,200 (0.71%) of roughly 310,000 compounds showed an effect of 50% or more. Effects have a minus sign here. The list shows a part of the results.

Target: human ether-à-go-go-related gene (hERG) potassium channel (human, UniProt Q12809)
Assay: primary screen, population patch clamp on CHO cells stably expressing hERG

Sequence of human ether-à-go-go-related gene (hERG) potassium channel (Q12809 whole entry, looked up): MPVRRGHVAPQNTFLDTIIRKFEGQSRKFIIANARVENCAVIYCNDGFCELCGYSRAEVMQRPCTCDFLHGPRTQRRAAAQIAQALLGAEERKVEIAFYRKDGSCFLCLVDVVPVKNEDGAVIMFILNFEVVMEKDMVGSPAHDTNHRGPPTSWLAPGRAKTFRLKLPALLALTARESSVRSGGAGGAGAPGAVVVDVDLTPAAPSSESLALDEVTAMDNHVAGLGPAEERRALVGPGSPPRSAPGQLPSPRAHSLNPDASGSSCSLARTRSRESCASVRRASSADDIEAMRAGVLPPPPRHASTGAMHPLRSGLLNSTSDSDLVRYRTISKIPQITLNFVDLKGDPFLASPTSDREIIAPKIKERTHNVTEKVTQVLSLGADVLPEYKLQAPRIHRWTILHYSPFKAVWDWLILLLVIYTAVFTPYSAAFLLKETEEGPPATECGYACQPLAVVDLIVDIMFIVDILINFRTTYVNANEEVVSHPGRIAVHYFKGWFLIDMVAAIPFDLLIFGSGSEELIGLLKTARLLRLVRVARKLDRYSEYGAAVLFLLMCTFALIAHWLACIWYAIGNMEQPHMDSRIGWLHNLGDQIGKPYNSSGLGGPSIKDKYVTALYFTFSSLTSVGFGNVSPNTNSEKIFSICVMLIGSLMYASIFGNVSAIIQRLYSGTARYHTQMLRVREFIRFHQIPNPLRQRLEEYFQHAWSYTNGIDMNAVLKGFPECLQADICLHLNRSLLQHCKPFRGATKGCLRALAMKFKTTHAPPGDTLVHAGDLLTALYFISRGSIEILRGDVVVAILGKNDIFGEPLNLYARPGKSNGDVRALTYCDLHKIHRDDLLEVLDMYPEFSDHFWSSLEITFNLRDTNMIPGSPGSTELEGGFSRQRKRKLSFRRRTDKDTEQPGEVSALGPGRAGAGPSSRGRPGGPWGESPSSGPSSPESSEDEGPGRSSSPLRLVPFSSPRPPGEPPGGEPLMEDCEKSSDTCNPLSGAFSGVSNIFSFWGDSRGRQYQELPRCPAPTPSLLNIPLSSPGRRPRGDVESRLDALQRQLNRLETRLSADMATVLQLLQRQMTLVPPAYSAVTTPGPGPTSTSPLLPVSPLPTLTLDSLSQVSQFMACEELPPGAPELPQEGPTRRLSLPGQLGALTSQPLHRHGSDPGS

Question: Which “hERG current change (%, negative = inhibition) at 1uM” value does the source give for COc1ccc(CCNCC(O)COc2c(C)cccc2C)cc1OC.O=C(O)C(=O)O (stereo not shown) here?
Answer: 7.9%

Question: CC1CCN(S(=O)(=O)c2ccc(C(=O)NNC(=O)C3CC3)cc2)CC1 was tested. Which “hERG current change (%, negative = inhibition) at 1uM” value did it give?
Answer: 12.1%

Question: CC(C)(C)NC(=O)NC(=O)COC(=O)Cc1c(F)cccc1Cl was tested. Which “hERG current change (%, negative = inhibition) at 1uM” value did it give?
Answer: 8.47%

Question: Which “hERG current change (%, negative = inhibition) at 1uM” value does the source give for C=CCNC(=S)N/N=C(\C)c1ccc(OC)cc1 here?
Answer: 19.8%

Question: For COCCOC(=O)CC1=NC(=O)CS1, which “hERG current change (%, negative = inhibition) at 1uM” value is on record?
Answer: 10.6%

Question: With CCC(C)(C)n1nnnc1C(c1cccc(C#N)c1)N1CCN(c2cccc(C)c2C)CC1 (stereo not shown) as the compound, how does the “hERG current change (%, negative = inhibition) at 1uM” value read?
Answer: 7.31%

Question: How did the “hERG current change (%, negative = inhibition) at 1uM” value turn out when O=C(c1ccc(OC2CCN(Cc3ccccn3)CC2)cc1)N1CCCC(O)C1 (stereo not shown) was run?
Answer: 9.27%

Question: Which “hERG current change (%, negative = inhibition) at 1uM” value does the source give for Cn1c(SCC(=O)N2CCN(C(=O)c3ccco3)CC2)nnc1-c1ccc(NS(C)(=O)=O)cc1 here?
Answer: 15.9%

Question: With COc1ccc(Cl)cc1CSc1n[nH]c(C)n1 as the compound, how does the “hERG current change (%, negative = inhibition) at 1uM” value read?
Answer: 16.6%

Question: For Cc1cc2c(cc1S(=O)(=O)N1CCN(c3cccc(C)c3C)CC1)OCCN2C, which “hERG current change (%, negative = inhibition) at 1uM” value is on record?
Answer: 0.0171%

Question: With COc1ccc(Cl)cc1N1CCN(CCNC(=O)Nc2ccccc2C)CC1 as the compound, how does the “hERG current change (%, negative = inhibition) at 1uM” value read?
Answer: -0.596%

Question: Which “hERG current change (%, negative = inhibition) at 1uM” value does the source give for Cc1onc(-c2c(Cl)cccc2Cl)c1C(=O)NC(C)(C)CO here?
Answer: -1.55%

Question: With COc1cccc(C2CC(C(F)(F)F)n3nc(C(=O)Nc4c(C)n(C)n(-c5ccccc5)c4=O)cc3N2)c1 (stereo not shown) as the compound, how does the “hERG current change (%, negative = inhibition) at 1uM” value read?
Answer: 17.1%

Question: With O=C(CN(Cc1ccco1)C(=O)CNS(=O)(=O)c1ccccc1)NCc1ccc(F)cc1 as the compound, how does the “hERG current change (%, negative = inhibition) at 1uM” value read?
Answer: -7.1%

Question: How did the “hERG current change (%, negative = inhibition) at 1uM” value turn out when Cc1ccc(S(=O)(=O)N(CC(=O)Nc2cccnc2)c2cccc(Br)c2)cc1 was run?
Answer: 7.63%

Question: CCNC(=S)N(Cc1ccco1)Cc1cc2cc3c(cc2[nH]c1=O)OCCO3 was tested. Which “hERG current change (%, negative = inhibition) at 1uM” value did it give?
Answer: 5.92%

Question: Which “hERG current change (%, negative = inhibition) at 1uM” value does the source give for COc1ccc(/C=C2/C(=O)NC(=O)N(C3CCCCC3)C2=O)cc1CSc1ccccn1 here?
Answer: 10.2%

Question: For O=C1CC(c2ccsc2)Sc2ccccc2N1 (stereo not shown), which “hERG current change (%, negative = inhibition) at 1uM” value is on record?
Answer: -0.654%

Question: How did the “hERG current change (%, negative = inhibition) at 1uM” value turn out when CCN(CC)C(=O)CSc1nnc2nnc3cc(OC)ccc3n12 was run?
Answer: 11.9%

Question: For COc1cccc(CN2CCN(C3CSCCSC3)CC2CCO)c1 (stereo not shown), which “hERG current change (%, negative = inhibition) at 1uM” value is on record?
Answer: 5.67%

Question: Which “hERG current change (%, negative = inhibition) at 1uM” value does the source give for CC(C)(C)NC(=O)NCc1cccnc1 here?
Answer: 15.8%

Question: With COc1ccc(-c2nnc(SCc3cccc(C#N)c3)o2)cc1 as the compound, how does the “hERG current change (%, negative = inhibition) at 1uM” value read?
Answer: 9.14%

Question: With CCN(CC)c1ccc(NC(=O)COc2ccc(C#N)cc2)cc1S(=O)(=O)Nc1ccc(OC)cc1 as the compound, how does the “hERG current change (%, negative = inhibition) at 1uM” value read?
Answer: 8.74%

Question: Which “hERG current change (%, negative = inhibition) at 1uM” value does the source give for Clc1nc2ccccc2nc1-c1ccccc1 here?
Answer: 12.8%

Question: Which “hERG current change (%, negative = inhibition) at 1uM” value does the source give for Cc1ccc(CNS(=O)(=O)c2cccc3nsnc23)cc1 here?
Answer: -4.25%

Question: For COc1cc(/C=N/NC(=O)Cc2csc(N3CCOCC3)n2)cc(OC)c1O, which “hERG current change (%, negative = inhibition) at 1uM” value is on record?
Answer: 25.6%

Question: How did the “hERG current change (%, negative = inhibition) at 1uM” value turn out when CCN(CC)C(=O)c1cc(C(C)(C)C)c(O)c(C(C)(C)C)c1 was run?
Answer: -11.1%

Question: How did the “hERG current change (%, negative = inhibition) at 1uM” value turn out when COc1ccc(-c2noc(-c3ccc(Cl)cc3[N+](=O)[O-])n2)cc1OC was run?
Answer: 7.5%

Question: For CC(C)(C)OC(=O)N[C@@H](Cc1ccccc1)c1nnc(SCC(=O)c2ccc(Cl)cc2)o1, which “hERG current change (%, negative = inhibition) at 1uM” value is on record?
Answer: 2.37%

Question: CN(C)S(=O)(=O)N1CCC(Oc2ccc(C(=O)N3C[C@@H]4CCC[C@H]3C4)cc2)CC1 was tested. Which “hERG current change (%, negative = inhibition) at 1uM” value did it give?
Answer: 5.79%

Question: How did the “hERG current change (%, negative = inhibition) at 1uM” value turn out when COc1cc(C2c3sc(=O)[nH]c3SC3C4CCC(C4)C23)ccc1O (stereo not shown) was run?
Answer: -1.15%

Question: COc1ccc(CCN(C(=S)Nc2ccccc2)C2CC(=O)N(c3ccccc3)C2=O)cc1 (stereo not shown) was tested. Which “hERG current change (%, negative = inhibition) at 1uM” value did it give?
Answer: 9.33%

Question: How did the “hERG current change (%, negative = inhibition) at 1uM” value turn out when Cc1ccccc1NC(=O)NCc1ccco1 was run?
Answer: 12.7%

Question: With O=C1CC(N2CCOCC2)=NN1c1ccc([N+](=O)[O-])cc1 as the compound, how does the “hERG current change (%, negative = inhibition) at 1uM” value read?
Answer: 5.54%

Question: With CCOC(=O)c1ccc(/[N+]([O-])=C/c2ccccc2)cc1 as the compound, how does the “hERG current change (%, negative = inhibition) at 1uM” value read?
Answer: 2.12%

Question: For C=C(C)CC(c1ccccc1)N(C(C)=O)c1ccco1 (stereo not shown), which “hERG current change (%, negative = inhibition) at 1uM” value is on record?
Answer: 9.74%

Question: Cc1cc(C)c(S(=O)(=O)Nc2c(C)n(C)n(-c3ccccc3)c2=O)cc1[N+](=O)[O-] was tested. Which “hERG current change (%, negative = inhibition) at 1uM” value did it give?
Answer: 12%

Question: Which “hERG current change (%, negative = inhibition) at 1uM” value does the source give for CC(Sc1nc(=O)cc(N)n1CCc1ccccc1)C(=O)NCc1ccccc1 (stereo not shown) here?
Answer: 2.71%

Question: Which “hERG current change (%, negative = inhibition) at 1uM” value does the source give for CC(C(=O)NCCCN1CCOCC1)n1cccc1C(=O)c1ccccc1 (stereo not shown) here?
Answer: 10.4%

Question: For O=C(Nc1ccc(Cl)cc1)C(Cl)C(=O)c1ccccc1 (stereo not shown), which “hERG current change (%, negative = inhibition) at 1uM” value is on record?
Answer: 6.43%

Question: O=C(Cn1nnc(-c2cccc(C(F)(F)F)c2)n1)NC1CCCC1 was tested. Which “hERG current change (%, negative = inhibition) at 1uM” value did it give?
Answer: 12.8%

Question: COc1ccc(S(=O)(=O)Nc2ccccc2N2CCOCC2)cc1[N+](=O)[O-] was tested. Which “hERG current change (%, negative = inhibition) at 1uM” value did it give?
Answer: -2.92%

Question: Which “hERG current change (%, negative = inhibition) at 1uM” value does the source give for O=C(CCNS(=O)(=O)c1ccc(Br)cc1)NCCc1ccccc1 here?
Answer: 4.74%

Question: How did the “hERG current change (%, negative = inhibition) at 1uM” value turn out when COc1ccc(CCC(=O)N2CCN(S(=O)(=O)c3ccc(OC)cc3)CC2)cc1 was run?
Answer: -4.89%

Question: With CCc1ccc(NC(=O)/C(C#N)=C/c2ccncc2)cc1 as the compound, how does the “hERG current change (%, negative = inhibition) at 1uM” value read?
Answer: -8.33%

Question: Cc1cc(C)nc(NS(=O)(=O)c2ccc(NC(=S)NC(=O)C(C)(C)C)cc2)n1 was tested. Which “hERG current change (%, negative = inhibition) at 1uM” value did it give?
Answer: -11.8%

Question: For Cc1cc(NC(=O)CN(C)CC(=O)Nc2ccc(Cl)c(C(F)(F)F)c2)no1, which “hERG current change (%, negative = inhibition) at 1uM” value is on record?
Answer: 0.073%

Question: COc1ccc(-c2cc(=O)oc3c(C)c(OCc4nn[nH]n4)ccc23)cc1 was tested. Which “hERG current change (%, negative = inhibition) at 1uM” value did it give?
Answer: 11.3%

Question: Which “hERG current change (%, negative = inhibition) at 1uM” value does the source give for COC(=O)C1=CN(Cc2ccc(OC)c(OC)c2)C=C(C(=O)OC)C1c1cccc(F)c1 here?
Answer: 5.44%

Question: Cc1ccc2c(C(=O)CN3CCN(C4CCCCC4)CC3)c(C)[nH]c2c1 was tested. Which “hERG current change (%, negative = inhibition) at 1uM” value did it give?
Answer: -16.2%

Question: Which “hERG current change (%, negative = inhibition) at 1uM” value does the source give for Cc1cc(Cl)n2nc(C)c(-c3ccc(Cl)cc3)c2n1 here?
Answer: 10.5%

Question: With CCOC(=O)N1CCN(C(=O)COc2ccc(S(=O)(=O)NCC(C)C)cc2C)CC1 as the compound, how does the “hERG current change (%, negative = inhibition) at 1uM” value read?
Answer: 8.75%

Question: Which “hERG current change (%, negative = inhibition) at 1uM” value does the source give for Cc1ccc(NC(=O)C2CCCN(S(=O)(=O)c3c(C)noc3C)C2)c(C)c1 (stereo not shown) here?
Answer: 0.751%

Question: With CCOc1ccc(CCNc2ccc3nnc(-c4ccccc4)n3n2)cc1OCC as the compound, how does the “hERG current change (%, negative = inhibition) at 1uM” value read?
Answer: 9.4%

Question: How did the “hERG current change (%, negative = inhibition) at 1uM” value turn out when O=S(=O)(c1ccc(-c2cn3ccccc3n2)cc1)N1CCOCC1 was run?
Answer: 3.57%
